The values that follow come from ChEMBL document CHEMBL4888484, “Replenishing the malaria drug discovery pipeline: Screening and hit evaluation of the MMV Hit Generation Library 1 (HGL1) against asexual blood stage Plasmodium falciparum ,using a nano luciferase reporter read-out” (2022).

Each structure is given as a SMILES string. Out of some 4,800 compounds screened, about 420 (8.8%) showed an effect of 50% or more. The list shows a part of the results.

This test relates to Plasmodium falciparum. Description: Confirmatory screen in NF54 nanoGlo assay, in single point, at 2uM, 72h. The format is functional, Erythrocyte. As to conditions: timepoint 72 hour.
Turning to `CC(C)CC1NC2(C(=O)N(Cc3ccccc3F)c3ccccc32)C2C(=O)N(c3cccc(Cl)c3)C(=O)C12` (stereo unspecified), the “% Inhibition” value is recorded as -5%.

Consider `Cc1cc(N)cc(Br)c1N`, for which the “% Inhibition” value is 4%.

With `COc1ccc(C(NC(=O)NCC2CCCO2)C(Cl)(Cl)Cl)cc1F` (stereo unspecified), the “% Inhibition” value is -8%.

Turning to `Cc1nn(C(C)(C)C)c2nc(C3CC3)cc(C(=O)N(C)c3ccccc3)c12`, the “% Inhibition” value is recorded as 81%.

With `COc1cccc(C(=O)N2CCN(c3cc(N4CCOCC4)nc(C)n3)CC2)c1`, the “% Inhibition” value is listed as -2%.

As to `COc1cccc(-c2cc3c(N4CCC(C(=O)NC[C@H]5CCCO5)CC4)nccn3n2)c1`, the “% Inhibition” value amounted to 4%.

As to `C[C@H](Nc1cccc2c1CCO2)c1cccnc1`, the “% Inhibition” value turned out to be 6%.

As for `O=C(CCOCC(F)(F)F)Nc1ccc2c(c1)C(=O)NC2`, the “% Inhibition” value is listed as -6%.

With `NC(=O)c1c(Cl)cccc1NCc1noc(Cc2ccccc2)n1`, the “% Inhibition” value is listed as -4%.

With `c1ccc(-c2nnc3nc(N4CCOCC4)nc(N4CCOCC4)n23)cc1`, the “% Inhibition” value is given as 7%.

`Cc1cc(C)c(S(=O)(=O)Cc2ccccc2)c(O)n1`: the “% Inhibition” value amounted to 4%.

With `COc1ccccc1N(Cc1ccccc1)C1=NC(=[N+](Cc2ccccc2)c2ccccc2OC)c2ccccc21`, the “% Inhibition” value is recorded as 74%.

Turning to `Cc1nc2ccccc2cc1OCc1ccc(F)cc1`, the “% Inhibition” value was 3%.

In the case of `N#Cc1cc(O)c(-c2c(O)n[nH]c2-c2ccccc2)cc1C#N`, the “% Inhibition” value was determined as 3%.

Take `O=C(NCc1ccccn1)[C@H]1CN(S(=O)(=O)c2cccnc2)CC12CCCCC2`: the “% Inhibition” value worked out at 10%.

`COc1ccccc1NC(=O)c1cnn2c3c(cnc12)CCCCC3`: the “% Inhibition” value is -4%.

For `O=C(Cc1nnc2ccc(C(=O)Nc3ccccc3)cn12)Nc1ccc(F)cc1`, the “% Inhibition” value was 0%.

For `O=C(Nc1nn(Cc2ccccc2)cc1Cl)c1cc(-c2ccc(OC(F)F)cc2)[nH]n1`, the “% Inhibition” value was 4%.

Turning to `CN1CCN(c2c(F)cc3c(=O)c(C(=O)O)cn(-c4ccc(OC5CC6CCC5(C)C6(C)C)c(F)c4)c3c2F)CC1` (stereo unspecified), the “% Inhibition” value is given as 2%.

`CCN1C(=O)C(=O)N(CN2CCc3ccccc3C2)C1=O`: the “% Inhibition” value is recorded as -4%.

`Cc1cc(CN2C(=O)N[C@@]3(CCCCc4ccccc43)C2=O)no1`: the “% Inhibition” value is listed as -6%.

For `COC(=O)[C@H](NC(=O)CN1CCOc2ccc(Cl)cc21)c1ccc(O)cc1`, the “% Inhibition” value is given as -4%.

Turning to `Cc1cc(C)cc(CON=C(N)CCO)c1`, the “% Inhibition” value is given as -20%.

For the molecule `C[C@@H](CCNS(=O)(=O)c1c(Cl)cc(F)cc1Br)CC(=O)O`, the “% Inhibition” value is 10%.

On to `COC[C@@H]1CCCN1c1ccc2c(c1)CNCC(=O)N1CC[C@@H](CC(=O)NCCN3CCOCC3)[C@@H](/C=C/CO2)C1`, for which the “% Inhibition” value is -13%.

`CCOc1cc(CNCCOC)ccc1O`: the “% Inhibition” value was determined as 0%.

On to `O=C(Nc1ccc(N2CCOCC2)c(F)c1)OCc1ccccc1`, for which the “% Inhibition” value is reported as -8%.

Regarding `CCc1cccc(NC(=O)Cn2ccc3ccc(-c4nnc(C)o4)cc32)c1`, the “% Inhibition” value is on record as 81%.

Take `CCOCCC1(CNC(=O)c2cc(C)n[nH]2)CCC1`: the “% Inhibition” value is -1%.

As for `Cc1cc(-c2cc(O)cc(CC[C@H]3CCCCN3)c2)ccn1`, the “% Inhibition” value stood at 79%.

Turning to `COc1ccc([C@@H]2COc3ccccc3C(=O)N2)cc1`, the “% Inhibition” value was found to be 0%.

As to `COC(=O)[C@H](C#N)c1ccc(C#N)cn1`, the “% Inhibition” value turned out to be 5%.

With `COc1cccc(NC(=O)[C@H](Cc2ccccc2)NC(=O)c2cccnc2)c1`, the “% Inhibition” value is -13%.

For `O=C(Nc1cccnc1)c1ccc(-c2ccc(Cl)c(Cl)c2)o1`, the “% Inhibition” value came to 91%.

For `Cn1nncc1C(=O)Nc1ccc(Br)c(C(F)(F)F)c1`, the “% Inhibition” value is on record as -1%.

As to `CN(C(=O)c1ccc(F)cc1)[C@H]1CCOC1`, the “% Inhibition” value is on record as -15%.

For `CC(C)CCC(=O)NCC(=O)Nc1ccc(C#N)cc1`, the “% Inhibition” value is recorded as -9%.

On to `CCOc1ccc(N(Cc2ccccc2F)S(=O)(=O)c2ccc3nnc(C)n3c2)cc1`, for which the “% Inhibition” value is listed as -12%.

As to `Cc1ccc2c(c1)CCCN2S(=O)(=O)c1ccc2ccccc2c1`, the “% Inhibition” value is -14%.

On to `O=C(CO[C@H]1CCCc2c[nH]nc21)NC(C1CC1)C1CC1`, for which the “% Inhibition” value is recorded as -5%.

On to `C[C@H](NC(c1ccccc1)c1ccccc1)c1nnc(-c2cccs2)o1`, for which the “% Inhibition” value turned out to be 2%.

Take `Cc1nn(C)c(Cl)c1CNC[C@@H](c1ccsc1)N(C)C`: the “% Inhibition” value stood at 7%.

Take `COc1ccc(-n2nc(C)c3c2NC(=O)C[C@@H]3c2ccc3c(c2)OCO3)cc1`: the “% Inhibition” value is given as -5%.

Consider `Cc1noc(NCc2cc(C)oc2C)n1`, for which the “% Inhibition” value was -7%.

For the molecule `Cc1ccc(-n2nc(-c3ccccc3)c3cnc4cc(F)ccc4c32)cc1C`, the “% Inhibition” value was -7%.

Regarding `CCN1c2cc(C(=O)NCc3ccncc3)ccc2C(=O)N2CCCC[C@H]21`, the “% Inhibition” value is -2%.

For the molecule `CCc1nnc(NC(=O)NCc2c[nH]nn2)s1`, the “% Inhibition” value was -3%.

On to `COCCN(Cc1c(-c2ccccc2)noc1N1CCN(C)CC1)C(=O)c1ccc(C)cc1`, for which the “% Inhibition” value stood at 6%.

`COc1ccc(-c2nc3nnnn3cc2C)cc1OC`: the “% Inhibition” value is -2%.

As to `Cc1cnc(C2CC2)n1CCNC(=O)C1(C)CCCCC1`, the “% Inhibition” value is listed as -3%.

As for `CCn1ncc(C(=O)n2nc(C)cc2C)c1C`, the “% Inhibition” value was determined as 7%.

As to `N#Cc1c(NC(=O)CN2CCC[C@@H]2CO)sc2c1CCCCC2`, the “% Inhibition” value was determined as 1%.

With `Cc1ccc(Cn2c(=O)c(C(=O)NCc3ccc4c(c3)OCO4)nn(-c3ccc(C(C)C)cc3)c2=O)cc1`, the “% Inhibition” value came out at 64%.

As for `COc1ccc(C(=O)NCN2CCN(c3ccc(F)cc3)CC2)cc1OC`, the “% Inhibition” value is given as -14%.

As for `Cc1cc(CN(C)c2cc(C3CC3)nc(N(C)Cc3cc(C)on3)n2)no1`, the “% Inhibition” value was -13%.

Regarding `N#C[C@@H](C(=O)NCc1cccnc1)c1nc(-c2ccccc2)cs1`, the “% Inhibition” value is given as -1%.

With `COC(=O)C12CCC(C(=O)NC[C@H]3CCCOC3)(CC1)CC2`, the “% Inhibition” value is given as 3%.

Regarding `Cn1nccc1C(=O)N(C1CCCCC1)C1CCCCC1`, the “% Inhibition” value was -4%.

Turning to `CCN(CC)C(=O)c1cc(C)n(-c2ccc3c(c2)OCCO3)c1C`, the “% Inhibition” value is -7%.

Regarding `N=C(N)NCc1ccc(COCc2ccccc2)cc1`, the “% Inhibition” value came out at 17%.

Take `O=C(CN1CCC2(CC1)NC(c1ccccn1)=NO2)N1CCN(c2ccc(F)cc2)CC1`: the “% Inhibition” value is recorded as -2%.

In the case of `O=C1CC(c2ccccc2)N2N=C(N3C(=O)C4CC=CCC4C3=O)NC2=N1` (stereo unspecified), the “% Inhibition” value was -7%.

As to `CN(CCOc1ccc(Cl)cc1Cl)[C@H]1CCS(=O)(=O)C1`, the “% Inhibition” value was -7%.

As for `O=C(OC1CCCC1)C1CCCCC1C(=O)N1CCc2ccccc21` (stereo unspecified), the “% Inhibition” value is -2%.

Take `COc1ccccc1N1CCN(Cc2nc3ccccc3c(=O)n2-c2ccc(F)cc2)CC1`: the “% Inhibition” value came to 6%.

On to `Cc1nn(-c2ccccc2)c2nc(Cc3ccccc3)nc(N3CCCN(C(=O)NC4CCCCC4)CC3)c12`, for which the “% Inhibition” value came out at 30%.
